Read counts are not given, so values of variants with three or more changes are uncertain.
B1: LINE1-mini (parent)
chain: GGCAGAGCUCAACACAGCGUGGCAAAGUGGCUGUGGCUAGACUGCC

Variants of: B1
Assay: self-cleavage, relative activity (ratio to wild type); higher = more cleavage; in vitro, sequencing; the parent is a self-cleaving ribozyme

Variant | self-cleavage
GGCAGAGCUCAACACAGCGUGGCAAGGCGGCUGUGGCUAGACUCCC | 0.51
GGCAGAGAUCAACACAGCGUGGCAAAGUGGGUGUGGCUAUACUGCC | 0.21
GGCAGAGCUCAACACAGAGUGGCAAACUGGCUGUGGCUAUACUGCC | 0.04
GGCAUAGCUCAACACCGCGUGGCAUAGUGGCUGUGGCUCGAUUGCC | 0
GGCACAGGUCAACACAGCGUGGCAAAGUGGCGUUGGCUAGACAGCC | 0.03
GGCAGACCUCAACACAUCAUGGCAAAGUGGCUGUGGCUAGACUGCC | 0.03
GGCAGAGCGCAACACAGCGUGGCAAAGUGGAUGUGGCCAGACUGCC | 0.01
GGCAGAGCUCAACACAGUGUUGCAAAGUGGCUGUGGUUAGACUCCC | 0.03
GGCAGAGCACAACACAGCGUGGCAACGUGGCUGAGGCUAGACUGCC | 0.03
AGCAGAGCUCAGCACAGCGUGGCAAAGUGGCCGUGUCUAGACUGCC | 0.03
GGCAGAGCUCAGCACAGCGUGGCAAACUGGCUGUGGCUAGACUUCA | 0.02
CUCAAAGCUCAACACAGCGUGGCAAAGUGGCUCUUGCUAGACUGCC | 0.03
GGCAGAGAUCAACACAGCGUGGCAAAGUGUCUGUGGCUGAACUGCC | 0.01
GGCAGAGCUUAACACAGCGUGGCAAAGCGGCUGUGGCUAGACUUCC | 0.04
GCCAGAGCUCAACACAGCGUGGCAAACUGGCCGUGGCUAGACUGCC | 0.04
GGCAGAGAUCAUCACAGCGGGGCAAAGUGGCUGUAGCUAGACUGCG | 0.12
GGCAGAGCUCAACGCAGCCUUGCAAAGUGGUUGUGGCUAGACUGAC | 0.11
GGCAGAGCGCAACACAGCGUGGCAAAGUUGCUGUGGCUAGACUGCA | 0.03
GGCAAGGCUCAACCCGGCGUGGCAAAGUUGCUAUGGCUAGACUGCC | 0.12

Variant | self-cleavage
GGCAGAGCUCAAAACAGCGUGGCAAAAUGGCUCUGGCUAGACUGCC | 0.06
GGCAGUGCUCAACACAGAGCGGCAAAGUGGCUGUGGCUAGACUGCC | 0.34
GGCAGAUUUCAAGACAGCGUGGAAACGUGGCUGUGGCUAGACUGCC | 0.43
GGCAUAGCUCAAGACAGCGUGGCAAAGUGGCUGUGGGUAGACUGUC | 0.02
GGCAGAGUUCAACACUGCGUGGCAAUCUGGCUGUGGCUAGACUGCC | 0.19
GGCAUAGCUCAACACCCCGAUGGAAAGUGGCUGUGGCUAGACUGCC | 0.06
GCCAGAGCUCUACACUGCGUGGCAAAGUGGCAGUGGCUAGACUGCC | 0.01
GGCAGAGGUCAACACAGCGUGGCAAAGUGGCUGUGACUAGACUGAC | 0.13
GGCAGAGAUCAACACAGCGUGGCGAAGUGACUGUGGCUAGACUGCC | 1.09
AGCACAGCUCAACACAGCGUGGCAAAGUGGCUGUGGCUAUACUGCC | 0.11
GGCAGAGCUCAACACAGGAUGGCAAAGUGGCGGUGGCUAGACUGCC | 0.06
GGGAGAGCUCAACACAGCGUGGCAAAUUGGCUGUGGGUAGACUGCC | 0.09
GGGAGAGCCCAACAAUGCUUGGCAAAGUGGCUGUGGCUAGACUGCC | 0.03
GGCAGAGCUAAACACAGCGUGGCAAAGUGGCUGUGGCAAGAAUGCC | 0.1
GUCACAGCUCAACACAGAAUAGCAAAGUGGCUGUGGCUAGACUGCC | 0.01
GGCAGAGCUCUCCACAGCGUGGCAAAGUGGCUGUGGGUAGACUGCC | 0.01
GGCAGAGCUCAACACAGCGGGGGAAAGAGGCUAUGGCUAGACUGCC | 0.09
GGCAGAGCUCAACACAGCGUGGCAAAAUGGGUGUGGCUAGACUGCA | 0.03
GGAAGAGCUCAACACAGCGUGGCAGGGUGGCUGUGGCUAGACUGCC | 0.14

Variant | self-cleavage
GGCAGAGCUCAAGACAGCGCGGCAAGAUGCCUUUGGCUAGACUGUC | 0
GGCAGAGCUCAACAGAGAAUGGCAAAGUGGCUGUGGCUAGACUGCC | 0.01
GGCGGAGCUCAACACAGCGUGGCCAAGUGGCUAUGGCUAGACUGCC | 0.04
GGAAAAGCUCGACACAGCGUGGCAACUUGGCUGUGGCUAUACUGCU | 0.01
GGCAGAGCUCAACAAAGCGUGGCAAAGUUUCCGUGGCUAGACUGCC | 0.03
GGCAGAGCGCUACACAGCGUGGCAAAGUGUCUGUGGCUAUACGGCC | 0.01
GGCAGAGCUAAACACAGCGUGGCAAAGUGGCUGCGGCUAGAGUGCC | 0.05
GGCGGAGCUAAACACAGCGUGGCAAAGUGGCUGUGGCUAGAUUGCC | 0.04
GGCAGACCUCAACACAGCGUGGCAAAGUGGCUGUGGGCAGACUGCC | 0.01
GGCAGAGCUUUACACAGCGUGGCAUAGUGGCUGGGGCUAGACUGCC | 0.06
GACAGGGCUCAACACAGCGUGGCAAUCUGGCUCUGGCUAGACUGCC | 0.34
GGCAGAGCACAACACAGCGUGGCAAUGUGGCUGUGGCUAGGCUGCC | 0.09
GGCAUAGCUCAACAAAACGUGGAAAAGUGACUGUCGCUAAACUGCC | 0.06
GGCGGAGCUCAACACAGCGUGGCAAAGUGGCCGUUGCUAGACUGCC | 0.11
GGCAAAUCUCAACACAGCGUGGCAAAUUGGCUGUGGCUAGACUGCC | 0.28
GGCAGAGCUCAACACAGCGUGGCAAGGUGUCUGUGGCUAGAAUACC | 0.06
GGCAGAGCUCAACAUAGCGAGGCAAAGUGGCUUUGGCUUUACUGCC | 0.11
GACUGAGCUCAACUCAGCGUGGCAAAUUGGCUGUGGCUAAACUGCC | 0.26

Source: the RNAGym collection of RNA variant scans (doi:10.7554/elife.90254)
